According to patent US5710249A, “Amino acids and processes for making peptides using same” (The Salk Institute for Biological Studies, priority 1995, dated 1998):
Part of at least one peptide drawing is inferred or uncertain, most often the ends. Numbered stars: 1 amine (or outer) side, 2 acyl side, 3 side chain; on linkers, the order of the positions; unused ones are H or OH. Square brackets hold non-standard residues; d marks the D form. Peptide text beside a SMILES is read from it. * marks the point of attachment. dLys(Nε-C(NCN)NHBu) = CCCCNC(=NC#N)NCCCC[C@@H](N)C(=O)O; hArg(ω-Bu,ω'-CN) = CCCC/N=C(\NC#N)NCCCC[C@H](N)C(=O)O; X28 = N#CN=C(NCCC[C@@H](N[*:1])C(=O)[*:2])NCc1ccccn1; X16 = N#CN=C(NCCCC[C@H](N[*:1])C(=O)[*:2])Oc1ccccc1; X31 = N#CN=C(NCCC[C@H](N[*:1])C(=O)[*:2])NCc1ccccn1; Triazol3yl(1,2,4-5-NH2) = Nc1nc(*)n[nH]1; dPhe(4-Cl) = N[C@H](Cc1ccc(Cl)cc1)C(=O)O; d2Nal = N[C@H](Cc1ccc2ccccc2c1)C(=O)O; Lys(iPr) = CC(C)NCCCC[C@H](N)C(=O)O; d3Pal = N[C@H](Cc1cccnc1)C(=O)O; Nicotinoyl = O=C(c1cccnc1)*; X36 = CC(=O)Nc1n[nH]c(*)n1; ΔPro = O=C(O)[C@@H]1C=CCN1

Test system: mature female Sprague-Dawley rats
Test: in vivo testing of effectiveness to prevent ovulation in female rats
Set-up: species or system rat
Conditions: injected about noon on day of proestrus, rats ovulating/rats treated

| SMILES | Rats Ovulating (Dosage 10 micrograms) | Rats Ovulating (Dosage 2.5 micrograms) | Rats Ovulating (Dosage 1.0 micrograms) | also measured |
| --- | --- | --- | --- | --- |
| CCCCNC(=NC#N)NCCCC[C@H](NC(=O)[C@H](CC(C)C)NC(=O)[C@@H](CCCCNC(=O)c1cccnc1)NC(=O)[C@H](CCCCNC(=O)c1cccnc1)NC(=O)[C@H](CO)NC(=O)[C@@H](Cc1cccnc1)NC(=O)[C@@H](Cc1ccc(Cl)cc1)NC(=O)[C@@H](Cc1ccc2ccccc2c1)NC(C)=O)C(=O)N1CCC[C@H]1C(=O)N[C@H](C)C(N)=O [Peptide 13] (Ac-[d2Nal][dPhe(4-Cl)][d3Pal]SK(Nicotinoyl)[dK](Nicotinoyl)L[hArg(ω-Bu,ω'-CN)]P[dA]-NH2) | 3/5 |  |  |  |
| CCCCNC(=NC#N)NCCCC[C@H](NC(=O)[C@H](CO)NC(=O)[C@@H](Cc1cccnc1)NC(=O)[C@@H](Cc1ccc(Cl)cc1)NC(=O)[C@@H](Cc1ccc2ccccc2c1)NC(C)=O)C(=O)N[C@H](CCCCNC(=NC#N)NCCCC)C(=O)N[C@@H](CC(C)C)C(=O)N[C@@H](CCCNC(=N)N)C(=O)N1CCC[C@H]1C(=O)N[C@H](C)C(N)=O [Peptide 15] (Ac-[d2Nal][dPhe(4-Cl)][d3Pal]S[hArg(ω-Bu,ω'-CN)][dLys(Nε-C(NCN)NHBu)]LRP[dA]-NH2) |  | 0/4 |  |  |
| CCCCNC(=NC#N)NCCCC[C@H](NC(=O)[C@H](CC(C)C)NC(=O)[C@@H](Cc1ccc2ccccc2c1)NC(=O)[C@H](Cc1ccc(O)cc1)NC(=O)[C@H](CO)NC(=O)[C@@H](Cc1ccc2ccccc2c1)NC(=O)[C@@H](Cc1ccc(Cl)cc1)NC(=O)[C@@H]1C=CCN1C(C)=O)C(=O)N1CCC[C@H]1C(=O)N[C@H](C)C(N)=O [Peptide 17] (Ac-[ΔPro][dPhe(4-Cl)][d2Nal]SY[d2Nal]L[hArg(ω-Bu,ω'-CN)]P[dA]-NH2) | 6/8 |  |  | Rats Ovulating (Dosage 15 micrograms): 7/10 |
| CC(=O)N[C@H](Cc1ccc2ccccc2c1)C(=O)N[C@H](Cc1ccc(Cl)cc1)C(=O)N[C@H](Cc1cccnc1)C(=O)N[C@@H](CO)C(=O)N[C@@H](Cc1ccc(O)cc1)C(=O)N[C@H](CCCNC(=N)N)C(=O)N[C@@H](CC(C)C)C(=O)N[C@@H](CCCCNc1nc(N)n[nH]1)C(=O)N1CCC[C@H]1C(=O)N[C@H](C)C(N)=O [Peptide 32A] (Ac-[d2Nal][dPhe(4-Cl)][d3Pal]SY[dR]LK(Triazol3yl(1,2,4-5-NH2))P[dA]-NH2) | 0/6 | 0/7 | 5/10 | Rats Ovulating (Dosage 5.0 micrograms): 0/6 |
| CC(=O)N[C@H](Cc1ccc2ccccc2c1)C(=O)N[C@H](Cc1ccc(Cl)cc1)C(=O)N[C@H](Cc1cccnc1)C(=O)N[C@@H](CO)C(=O)N[C@@H](Cc1ccc(O)cc1)C(=O)N[C@H](CCCNC(=N)N)C(=O)N[C@@H](CC(C)C)C(=O)N[C@@H](CCCCNC(=NC#N)Oc1ccccc1)C(=O)N1CCC[C@H]1C(=O)N[C@H](C)C(N)=O [Peptide 55] (Ac-[d2Nal][dPhe(4-Cl)][d3Pal]SY[dR]L[X16]P[dA]-NH2) | 6/7 |  |  | Rats Ovulating (Dosage 25 micrograms): 2/5 |
| CCCCNC(=NC#N)NCCCC[C@@H](NC(=O)[C@H](CCCNC(=N)N)NC(=O)[C@H](CO)NC(=O)[C@@H](Cc1cccnc1)NC(=O)[C@@H](Cc1ccc(Cl)cc1)NC(=O)[C@@H](Cc1ccc2ccccc2c1)NC(C)=O)C(=O)N[C@@H](CC(C)C)C(=O)N[C@@H](CCCNC(=N)N)C(=O)N1CCC[C@H]1C(=O)N[C@H](C)C(N)=O [Peptide 88] (Ac-[d2Nal][dPhe(4-Cl)][d3Pal]SR[dLys(Nε-C(NCN)NHBu)]LRP[dA]-NH2) | 0/8 | 0/4 | 5/15 |  |
| CC(=O)Nc1n[nH]c(NCCCC[C@H](NC(=O)[C@H](CO)NC(=O)[C@@H](Cc2cccnc2)NC(=O)[C@@H](Cc2ccc(Cl)cc2)NC(=O)[C@@H](Cc2ccc3ccccc3c2)NC(C)=O)C(=O)N[C@H](CCCCNc2nc(NC(C)=O)n[nH]2)C(=O)N[C@@H](CC(C)C)C(=O)N[C@@H](CCCCNC(C)C)C(=O)N2CCC[C@H]2C(=O)N[C@H](C)C(N)=O)n1 [Peptide 93] (Ac-[d2Nal][dPhe(4-Cl)][d3Pal]SK(X36)[dK](X36)L[Lys(iPr)]P[dA]-NH2) |  | 5/10 |  |  |
| CC(=O)N[C@H](Cc1ccc2ccccc2c1)C(=O)N[C@H](Cc1ccc(Cl)cc1)C(=O)N[C@H](Cc1cccnc1)C(=O)N[C@@H](CO)C(=O)N[C@@H](CCCNC(=NC#N)NCc1ccccn1)C(=O)N[C@H](CCCNC(=NC#N)NCc1ccccn1)C(=O)N[C@@H](CC(C)C)C(=O)N[C@@H](CCCCNC(C)C)C(=O)N1CCC[C@H]1C(=O)N[C@H](C)C(N)=O [Peptide 102] (Ac-[d2Nal][dPhe(4-Cl)][d3Pal]S[X31][X28]L[Lys(iPr)]P[dA]-NH2) |  | 2/9 |  |  |
| CC(=O)N[C@H](Cc1ccc2ccccc2c1)C(=O)N[C@H](Cc1ccc(Cl)cc1)C(=O)N[C@H](Cc1cccnc1)C(=O)N[C@@H](CO)C(=O)N[C@@H](CCCCNc1nc(N)n[nH]1)C(=O)N[C@H](CCCCNc1nc(N)n[nH]1)C(=O)N[C@@H](CC(C)C)C(=O)N[C@@H](CCCCNC(C)C)C(=O)N1CCC[C@H]1C(=O)N[C@H](C)C(N)=O [Peptide 103B] (Ac-[d2Nal][dPhe(4-Cl)][d3Pal]SK(Triazol3yl(1,2,4-5-NH2))[dK](Triazol3yl(1,2,4-5-NH2))L[Lys(iPr)]P[dA]-NH2) |  | 0/7 | 3/9 | Rats Ovulating (Dosage 0.5 micrograms): 7/8 |
